Reference: PubChem BioAssay AID1345082 (National Center for Advancing Translational Sciences (NCATS), 2018)
Screen size: about 94,000 compounds; about 4,000 (4.3%) were called active. The inconclusive results got no clear call from the source; some entries with a clear call stand among them for comparison. The call rests on the fitted dose curve; in most records, active means well fitted inhibition curve with a large enough effect; inconclusive means small, poorly fitted or top-dose-only effect; inactive means no such curve, though single readings can be large or run the other way. A potency beside an inconclusive call is a rough fit, not a confirmed value.

Assay: Cytotoxic Profiling in NIH 3T3 Cell Line of Diverse Libraries Using Quantitative High-Throughput Screening; further: nearly all actives have a fitted effect of over 55% in size
Settings: NIH 3T3 viability, CellTiter-Glo ATP luminescence, 48-72 h; activity change, negative = cytotoxicity: at 96.7 µM (top of the series) unless noted; series mostly up to 96.7 µM
Summary of the method: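 ATP-dependent luminescence (CellTiter-Glo) served as the viability signal for NIH 3T3 cells treated with compound for 48 or 72 hr at 37 °C.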
On the % scale 0 is the no-effect control and ±100 the full control effect; potency means the concentration at half of the fitted maximal effect; tags describe the fitted curve by direction and shape.

| SMILES | Potency | outcome | activity change, negative = cytotoxicity |
| --- | --- | --- | --- |
| COc1ccc([C@H]2C[C@@H](O)[C@@H](O)[C@@H]2NC(=O)Nc2ccc(C(F)(F)F)cc2)cc1 | active: 25.1 µM |  |  |
| Cc1cc(S(=O)(=O)NCCc2noc(-c3ccccc3)n2)ccc1Cl | inconclusive: 50.1 µM [inhibitor, partial curve, poor fit] |  |  |
| Cc1noc(-c2ccccc2Cl)c1C(=O)N1CCC(Cc2ccccc2)CC1 | inconclusive: 39.8 µM [inhibitor, partial curve, poor fit] |  |  |
| CCn1c2c(c(=O)n1-c1ccccc1)CCN(C(=O)COc1ccccc1)C2 | inconclusive: 100 µM [inhibitor, partial curve, poor fit] |  |  |
| CN(C1CCCc2ccccc21)S(=O)(=O)c1cccc(C(F)(F)F)c1 (stereo unspecified) | inconclusive: 44.7 µM [inhibitor, partial curve, poor fit] |  |  |
| CS(=O)(=O)N1CC2(CCN(Cc3ccccn3)C2)Cc2ccccc21 (stereo unspecified) |  | inactive |  |
| COc1ccc(-c2cc(N3CCCC(NC(=O)c4cccn4C)C3)n[nH]2)cc1 (stereo unspecified) | inconclusive: 50.1 µM [inhibitor, partial curve, poor fit] |  |  |
| CC(C(=O)N1CCCN(c2cc(-c3ccc(Cl)cc3)[nH]n2)CC1)c1ccccc1 (stereo unspecified) | active: 35.5 µM |  |  |
| COCc1nc2nc(-c3ccccc3)c(Nc3ccncc3)cc2n1C | inconclusive: 112 µM [inhibitor, partial curve, poor fit] |  |  |
| O=C(NCCc1noc(-c2ccccc2)n1)c1ccccc1 |  |  | inactive: -27% |
| CC(C)c1nc2nccc(-c3cc4ccccc4o3)n2n1 | inconclusive: 50.1 µM [inhibitor, single point] |  |  |
| CC(=O)Nc1ccc(CNC[C@H]2Cn3cc(-c4ccc(C)cc4)nc3CO2)cc1 | inconclusive: 112 µM [inhibitor, single point] |  |  |
| CNC(=O)c1cccc(-c2cnc(Nc3cccc(F)c3)c3c2CCO3)c1 | inconclusive: 22.4 µM [inhibitor, full curve, poor fit] |  |  |
| CCN1c2cc(C(=O)Nc3ccc(C(=O)OC)cc3)ccc2C(=O)N2CCCC21 (stereo unspecified) |  |  | inactive: -26.9% |
| CCOC(=O)C1(Cc2ccc(F)cc2F)CCCN(S(=O)(=O)c2ccsc2)C1 (stereo unspecified) | inconclusive: 89.1 µM [inhibitor, partial curve, poor fit] |  |  |
| Cc1nc(C(C)C)sc1C(=O)N1CCC(=O)N(CC2CC2)C(C(C)C)C1 (stereo unspecified) | inconclusive: 89.1 µM [inhibitor, single point] |  |  |
| CCn1cc(-c2ccncc2)cc1C(=O)NCc1cccc(OC)c1 | inconclusive: 70.8 µM [inhibitor, single point] |  |  |
| Cc1ccc(CN2CC[C@@](C)(O)[C@H](N3CCCC3)C2)s1 | inconclusive: 50.1 µM [inhibitor, partial curve, poor fit] |  |  |
| COc1ccc(C(=O)NC(C(=O)NC2CC2)C2CCN(C(C)=O)CC2)cc1 (stereo unspecified) |  |  | inactive: 0.739% |
| Cc1nc(CN2Cc3nc(N(C)c4ccccc4)ccc3OCC2=O)cs1 | inconclusive: 50.1 µM [inhibitor, partial curve, poor fit] |  |  |
| COc1cccc(C(=O)N2CCN(C(=O)c3cccc(-c4ccccc4OC)c3)CC2)c1 | inconclusive: 44.7 µM [inhibitor, partial curve, poor fit] |  |  |

| SMILES | Potency | outcome | activity change, negative = cytotoxicity |
| --- | --- | --- | --- |
| COCCNC(=O)Cc1c[nH]c2ncc(-c3cccnc3)cc12 | inconclusive: 89.1 µM [inhibitor, partial curve, poor fit] |  |  |
| CC(C)NC(=O)N[C@H]1C[C@@H](Cc2cc(CN3CCN(c4ccccc4)CC3)on2)C1(C)C | inconclusive: 8.91 µM [inhibitor, full curve] |  |  |
| O=C(c1ccccc1F)N1CCCC2(C1)NC(=O)N(Cc1cccc(Cl)c1)C2=O (stereo unspecified) |  |  | inactive: -5.78% |
| Cc1cc(C)cc(-c2ccc(CN3CCCC3C(=O)NC3CC3)cc2)c1 (stereo unspecified) | inconclusive: 50.1 µM [inhibitor, partial curve, poor fit] |  |  |
| COc1ccccc1-c1ccc2ncc(Nc3ccccc3)n2n1 | inconclusive: 56.2 µM [inhibitor, partial curve, poor fit] |  |  |
| COc1ccc(CC(=O)N2CCC(c3n[nH]c(=O)n3-c3ccc(C)cc3)CC2)cc1Cl | inconclusive: 44.7 µM [inhibitor, partial curve, poor fit] |  |  |
| COc1ccc(NC(=O)NC[C@H]2O[C@H](Cc3cc(-c4cccc(O)c4)on3)CC[C@@H]2O)cc1 |  |  | inactive: -16.8% |
| CNC(=O)[C@@H]1CN(C(=O)c2nn(C)c3ccccc23)C[C@H]1C1CCN(C)CC1 |  | inactive |  |
| Cc1cn2nc(C(=O)Nc3ccc(OC(F)(F)F)cc3)cc2c(N2CCSCC2)n1 | inconclusive: 28.2 µM [inhibitor, partial curve, poor fit] |  |  |
| COc1ccccc1Nc1ccnc(N2CCCC(C(=O)NCc3cccc(Cl)c3)C2)n1 (stereo unspecified) | active: 12.6 µM |  |  |
| Clc1ccccc1C1Cn2cnc(-c3nc(-c4cccnc4)no3)c2CO1 (stereo unspecified) | inconclusive: 44.7 µM [inhibitor, partial curve, poor fit] |  |  |
| COc1ccccc1N1CCC(N[C@H](c2cccs2)C2CC(O)C2)CC1 (stereo partly specified) | inconclusive: 31.6 µM [inhibitor, partial curve, poor fit] |  |  |
| COc1ccc(NC(=O)Cc2c[nH]c3ncc(-c4cnn(C)c4)cc23)cn1 | active: 50.1 µM |  |  |
| COc1ccc(CN2CCC3(CC2)CC(C(C)C)=NO3)cc1 | inconclusive: 89.1 µM [inhibitor, partial curve] |  |  |
| S=C(NC1CCCCC1)N[C@H]1CO[C@H]2[C@@H]1OC[C@@H]2n1nnnc1Oc1cccc(N2CCOCC2)c1 | inconclusive: 31.6 µM [inhibitor, partial curve, poor fit] |  |  |
| CCCn1nccc1S(=O)(=O)N1CCc2nc(-c3ccccc3)[nH]c2C1 | inconclusive: 35.5 µM [inhibitor, full curve] |  |  |
| O=C(c1ccc2oc(-c3ccncc3Cl)nc2c1)N1CCCCC1 | inconclusive: 89.1 µM [inhibitor, partial curve, poor fit] |  |  |
| CCc1ccc(C(=O)N2CCC(c3n[nH]c(=O)n3Cc3ccc(F)cc3)CC2)cc1 | inconclusive: 50.1 µM [inhibitor, partial curve, poor fit] |  |  |
| CC1=C[C@@H](CNC(=O)COc2ccccc2)[C@H](C(C)C)C[C@H]1Cc1nnc(-c2cncn2C)o1 | inconclusive: 50.1 µM [inhibitor, partial curve, poor fit] |  |  |
| O=C(Cc1ccccc1)N1CC(c2noc(COc3ccccc3)n2)C1 |  |  | inactive: -27.3% |
| Cc1cc(-c2cc3c(ccn3C(C)C)c(C(=O)NCc3c(C)cc(C)[nH]c3=O)n2)ccn1 | active: 44.7 µM |  |  |

| SMILES | Potency | outcome | activity change, negative = cytotoxicity |
| --- | --- | --- | --- |
| C[S+](=O)([O-])CCn1ncc2cc(OCC3CCN(Cc4ccccc4)CC3)ccc21 | inconclusive: 100 µM [inhibitor, single point] |  |  |
| CC(C)=CCn1c(-c2ccc(F)cc2)cn2cc(C(=O)N(C)CC(C)O)nc2c1=O (stereo unspecified) |  |  | inactive: -1.93% |
| Nc1cccc(C(=O)NCC2CCN(Cc3cc(F)cc(F)c3)C2)c1 (stereo unspecified) |  |  | inactive: -0.433% |
| CC(=O)NCc1nnc2n1C(C(=O)NCC1CCCCC1)CC2 (stereo unspecified) |  |  | inactive: 1.55% [at 138 µM] |
| CC(C)NC(=O)N1Cc2ccccc2OC2(CCN(C(=O)N3CCN(C)CC3)CC2)C1 |  |  | inactive: 3.53% |
| O=C(NCCc1ccccc1)c1nc2sccn2c1-c1ccc(C(F)(F)F)cc1 | active: 14.1 µM |  |  |
| COc1ccc(C(=O)N2CCCCCCNC(=O)[C@@H]3C[C@@H](c4nc(C(C)C)no4)C[C@@H]32)c(OC)n1 | inconclusive: 50.1 µM [inhibitor, partial curve, poor fit] |  |  |
| COc1ccc(NC(=O)N2CCC(c3noc(-c4cccnc4)n3)C2)cc1 (stereo unspecified) |  |  | inactive: -26.1% |
| COc1ccc(C(C)NC(=O)c2ccc(-c3ccc(N4CCSCC4)nc3)cc2)cc1 (stereo unspecified) | inconclusive: 25.1 µM [inhibitor, partial curve, poor fit] |  |  |
| Cn1ncc2c(C(=O)NC3CCCC3)cc(-c3ccccc3C(F)(F)F)nc21 | inconclusive: 50.1 µM [inhibitor, partial curve, poor fit] |  |  |
| COc1ccc(-n2nc(C)c([C@H]3C=C[C@@H](OC(=O)Nc4ccc(Br)cc4)C3)c2C)cc1 | inconclusive: 28.2 µM [inhibitor, partial curve] |  |  |
| COc1ccccc1Nc1ccnc(N2CCCC(C(=O)NC(C)c3ccc(F)cc3)C2)n1 (stereo unspecified) | inconclusive: 14.1 µM [inhibitor, full curve, poor fit] |  |  |
| O=C1COCC2(CN1Cc1ccc(F)cc1Cl)CN(c1ccc(C(F)(F)F)cn1)C2 | inconclusive: 50.1 µM [inhibitor, partial curve, poor fit] |  |  |
| O=C(c1ccccc1Cl)N1CCC(c2nn(-c3ccc(Cl)cc3)c(=O)[nH]2)CC1 | inconclusive: 44.7 µM [inhibitor, partial curve, poor fit] |  |  |
| Cc1ccccc1N1Cc2c(NCCc3ccccc3F)ncnc2N(C)CC1=O | inconclusive: 50.1 µM [inhibitor, partial curve, poor fit] |  |  |
| Cc1nc2cc(C(=O)N3CCC(Cc4nncn4C(C)C)CC3)ccc2n1-c1ccc(C(C)C)cc1 | inconclusive: 70.8 µM [inhibitor, single point] |  |  |
| CCNc1ncnc2sc3c(c12)CCN(Cc1cccnc1)C3 | inconclusive: 50.1 µM [inhibitor, partial curve, poor fit] |  |  |
| CCc1nc2c(c(-c3ccc(O)cc3)n1)CCN(Cc1ccc(C(F)(F)F)cc1)CC2 | inconclusive: 50.1 µM [inhibitor, partial curve, poor fit] |  |  |
| COc1ccccc1-c1ccc(CN2CCCCC2C(=O)NCc2ccc(F)c(F)c2)cc1 (stereo unspecified) | inconclusive: 15.8 µM [inhibitor, full curve, poor fit] |  |  |
